Measured values taken from PubChem BioAssay AID588591 (National Center for Advancing Translational Sciences (NCATS), 2011).
Hit rate of the full screen: of about 390,000 compounds, about 4,700 (1.2%) were called active. This list was built around the results that the source calls inconclusive (neither active nor inactive); the mix of calls is not that of the screen. The call rests on the fitted dose curve; in most records, active means well fitted inhibition curve with a large enough effect; inconclusive means small, poorly fitted or top-dose-only effect, or another doubt; inactive means no such curve, though single readings can be large or run the other way. Potencies beside an inconclusive call are fits to weak or partial responses and may not hold up.

What follows are compounds tested against DNA polymerase eta (Homo sapiens) (UniProt Q9Y253) (assay: qHTS for Inhibitors of Polymerase Eta). Conditions: recombinant Pol eta, fluorescent DNA replication assay; series mostly up to 114 µM; activity change, negative = inhibition: at the top concentration.
Outline: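 Pol eta at 10 nM preincubated with compounds 15 min at room temperature; reaction started with fluorescent substrate (50 nM final) and read kinetically at 0 and 10 min.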
On the % scale 0 is the no-effect control and ±100 the full control effect; potency means the concentration at half of the fitted maximal effect; tags describe the fitted curve by direction and shape.

Chain of UniProt Q9Y253 (Q9Y253 whole entry, looked up): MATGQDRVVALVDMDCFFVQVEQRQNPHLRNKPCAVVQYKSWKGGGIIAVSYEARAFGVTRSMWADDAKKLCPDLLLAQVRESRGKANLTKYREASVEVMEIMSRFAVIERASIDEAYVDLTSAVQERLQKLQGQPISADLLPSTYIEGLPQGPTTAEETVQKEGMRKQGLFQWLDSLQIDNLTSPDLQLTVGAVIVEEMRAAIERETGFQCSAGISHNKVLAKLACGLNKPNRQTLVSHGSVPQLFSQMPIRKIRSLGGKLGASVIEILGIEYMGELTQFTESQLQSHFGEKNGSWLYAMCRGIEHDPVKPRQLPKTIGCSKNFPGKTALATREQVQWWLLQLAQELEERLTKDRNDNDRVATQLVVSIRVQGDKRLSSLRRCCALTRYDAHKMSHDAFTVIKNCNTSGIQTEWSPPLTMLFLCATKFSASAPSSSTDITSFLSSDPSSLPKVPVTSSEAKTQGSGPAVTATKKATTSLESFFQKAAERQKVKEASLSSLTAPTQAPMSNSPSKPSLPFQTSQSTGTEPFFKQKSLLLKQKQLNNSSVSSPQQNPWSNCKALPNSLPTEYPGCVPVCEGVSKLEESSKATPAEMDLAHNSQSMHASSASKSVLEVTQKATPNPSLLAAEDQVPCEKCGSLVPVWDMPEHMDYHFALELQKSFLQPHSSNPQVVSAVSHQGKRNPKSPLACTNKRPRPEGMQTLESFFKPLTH

**Q.** For O=C(O)c1ccc(Nc2ncc([N+](=O)[O-])cc2[N+](=O)[O-])cc1, which Potency is on record?
**A.** active: 31.6 µM

**Q.** O=C(Nc1ccc(S(=O)(=O)Nc2ncccn2)cc1)C12CC3CC(CC(C3)C1)C2 was tested. Which Potency did it give?
**A.** inconclusive: 22.4 µM [inhibitor, partial curve, poor fit]

**Q.** How did the Potency turn out when Cc1[nH]c(=O)c(C#N)cc1-c1ccc2nccn2c1 was run?
**A.** inconclusive: 28.2 µM [inhibitor, single point]

**Q.** Which Potency does the source give for O=C(COC(=O)Cc1ccc(S(=O)(=O)N2CCOCC2)s1)NCc1ccccc1 here?
**A.** inconclusive: 28.2 µM [inhibitor, single point]

**Q.** For O=C(O)CCCCCCCCCC[n+]1ccccc1, which Potency is on record?
**A.** inconclusive: 89.1 µM [inhibitor, partial curve, poor fit]

**Q.** Which Potency does the source give for Cc1cc2ncn(C(=O)c3ccc4c(c3)OCO4)c2cc1C here?
**A.** inconclusive: 39.8 µM [inhibitor, partial curve, poor fit]

**Q.** COc1cc(/C=N/NC(=O)CSc2cc(C)c(Br)cc2C)ccc1O was tested. Which Potency did it give?
**A.** inconclusive: 50.1 µM [inhibitor, partial curve, poor fit]

**Q.** How did the Potency turn out when N#CCSC1=Nc2ccccc2C2=NC(CCC(=O)N3CCN(c4ccccc4)CC3)C(=O)N12 (configuration not stated) was run?
**A.** inconclusive: 35.5 µM [inhibitor, single point]

**Q.** Which Potency does the source give for COc1ccc2c(=O)c3c(=O)n(Cc4ccco4)c(-c4ccco4)nc3oc2c1 here?
**A.** active: 35.5 µM

**Q.** COc1ccc(/C(O)=C/C(=O)C(=O)NNC(=O)C(O)(c2ccccc2)c2ccccc2)cc1 was tested. Which Potency did it give?
**A.** inconclusive: 15.8 µM [inhibitor, full curve, poor fit]

**Q.** Which Potency does the source give for O=C(N/N=C/c1c(O)n(Cc2ccccc2)c(=O)c2ccccc12)c1cccnc1 here?
**A.** inconclusive: 31.6 µM [inhibitor, full curve]

**Q.** With C/C(=N\Nc1c([N+](=O)[O-])c(C)nn1C)c1ccc(F)cc1F as the compound, how does the Potency read?
**A.** inconclusive: 22.4 µM [inhibitor, partial curve, poor fit]

**Q.** With Nc1ccc2c(c1)nc(Cc1ccccc1)n2CCO as the compound, how does the “activity change, negative = inhibition” value read?
**A.** inactive: -11.1%

**Q.** Which “activity change, negative = inhibition” value does the source give for O=C(CSc1nc(-c2cccc(F)c2)[nH]c1-c1ccccc1)Nc1ccc2c(c1)OCO2 here?
**A.** inactive: -6.06%

**Q.** For CCCc1cc(C(=O)OCC(=O)NCCc2ccccc2)sc1C, which “activity change, negative = inhibition” value is on record?
**A.** inactive: -1.04%

**Q.** For C/C(=N\Nc1cccc(C(=O)O)c1)c1ccc(Cl)s1, which Potency is on record?
**A.** active: 20 µM

**Q.** COC(=O)C(CCSC)Nc1ncnc2onc(-c3ccc(F)cc3)c12 (configuration not stated) was tested. Which “activity change, negative = inhibition” value did it give?
**A.** inactive: 1.91%

**Q.** Which Potency does the source give for C#CCOCCOCCOCCNc1nc(N2CCN(C(=O)CCCCCCCCCCNC(=O)[C@H](CCCCN)n3cc(CCO)nn3)CC2)nc(N2CCN(C(=O)CCCCCCCCCCNC(=O)[C@H](CCCCN)n3cc(C[C@@H](C)CC)nn3)CC2)n1 here?
**A.** active: 79.4 µM

**Q.** Which Potency does the source give for Cc1ccc(-c2cc(C(=O)N/N=C/c3c(C)nn(C)c3C)c3ccccc3n2)cc1C here?
**A.** inconclusive: 14.1 µM [inhibitor, full curve, poor fit]

**Q.** With N=c1c(S(=O)(=O)c2ccc(Br)cc2)cc2c(=O)n3ccccc3nc2n1Cc1ccco1 as the compound, how does the Potency read?
**A.** inconclusive: 25.1 µM [inhibitor, full curve]

**Q.** For Cc1ccc(NC(=O)COc2cccc(/C=C3\SC(=S)N(CCC(=O)O)C3=O)c2)cc1Cl, which Potency is on record?
**A.** active: 44.7 µM

**Q.** How did the Potency turn out when COc1ccc2c(c1)C(=O)C(=O)N2 was run?
**A.** inconclusive: 17.8 µM [inhibitor, partial curve, poor fit]

**Q.** For COc1ccc(NC(=O)/C(Cl)=C(/Cl)S(=O)(=O)Cc2ccc(C)cc2)cn1, which Potency is on record?
**A.** active: 14.1 µM

**Q.** How did the “activity change, negative = inhibition” value turn out when Cc1ccccc1OCc1ccc(-c2nc(C#N)c(N3CCN(c4cccc(Cl)c4)CC3)o2)o1 was run?
**A.** inactive: -10.5%

**Q.** For Cc1cc(N(C)C)ccc1[N+](=O)[O-], which “activity change, negative = inhibition” value is on record?
**A.** inactive: -16.5%

**Q.** With COc1ccc(CC(=O)Nc2sccc2C#N)cc1S(=O)(=O)N1CCOCC1 as the compound, how does the Potency read?
**A.** inconclusive: 39.8 µM [inhibitor, partial curve, poor fit]

**Q.** With O=C(O)/C(=C\c1ccco1)NC(=O)c1cccc2ccccc12 as the compound, how does the Potency read?
**A.** active: 50.1 µM

**Q.** Which Potency does the source give for O=C(N/N=C/c1ccc([N+](=O)[O-])o1)c1sc2ccccc2c1Cl here?
**A.** inconclusive: 79.4 µM [inhibitor, partial curve]

**Q.** How did the Potency turn out when C/C(=N\NC(=S)Nc1c(C)cccc1C)c1ccc(O)cc1 was run?
**A.** inconclusive: 89.1 µM [inhibitor, partial curve, poor fit]

**Q.** Which Potency does the source give for Cc1ccc(C(=O)N/N=C\C2CC=CCC2)cc1[N+](=O)[O-] (configuration not stated) here?
**A.** active: 89.1 µM

**Q.** For O=C(COC(=O)CCOc1ccccc1)Nc1ncc(Cl)cc1Cl, which Potency is on record?
**A.** inconclusive: 35.5 µM [inhibitor, partial curve, poor fit]

**Q.** For CCN(CC(=O)Nc1c(F)cccc1F)C(=O)c1ccc(Cl)c(S(=O)(=O)N2CCCCC2)c1, which “activity change, negative = inhibition” value is on record?
**A.** inactive: -17%

**Q.** For COCCCNC(=O)Cc1ccc(-n2c(C)nc3cccnc32)cc1, which Potency is on record?
**A.** inconclusive: 31.6 µM [inhibitor, partial curve, poor fit]

**Q.** Which “activity change, negative = inhibition” value does the source give for Cc1noc(C)c1COc1ccc(C(=O)OCC(=O)N2CC(=O)Nc3ccccc32)cc1 here?
**A.** inactive: -5.53%

**Q.** With CC(C)C(NC(=O)c1ccc(C(C)(C)C)cc1)C(=O)Nc1cccc(S(N)(=O)=O)c1 (configuration not stated) as the compound, how does the Potency read?
**A.** inconclusive: 20 µM [inhibitor, partial curve, poor fit]

**Q.** Cc1ccc(S(=O)(=O)CC(=O)Nc2nc3c(C)cc(C)cc3s2)cc1 was tested. Which “activity change, negative = inhibition” value did it give?
**A.** inactive: 0.729%

**Q.** Which Potency does the source give for O=C(Cc1ccc(-n2cccc2)cc1)NCc1ccccc1Cl here?
**A.** inconclusive: 28.2 µM [inhibitor, single point]

**Q.** How did the Potency turn out when COc1cccc(/C=C/C(=O)c2c(O)cc(C)oc2=O)c1O was run?
**A.** inconclusive: 22.4 µM [inhibitor, full curve, poor fit]

**Q.** For CCCN(CC(=O)Nc1cccc(Br)c1)CC(=O)Nc1ccc(F)c(F)c1F, which Potency is on record?
**A.** inconclusive: 79.4 µM [inhibitor, partial curve, poor fit]

**Q.** CCOc1ccc(NC(=O)c2cc3cc4ccc(OC)cc4nc3o2)cc1 was tested. Which Potency did it give?
**A.** inconclusive: 89.1 µM [inhibitor, single point]

**Q.** With O=Nc1ccc2oc(=O)ccc2c1 as the compound, how does the Potency read?
**A.** inconclusive: 28.2 µM [inhibitor, single point]

**Q.** With O=C1Nc2ccccc2Oc2cc([N+](=O)[O-])cc(Oc3ccccc3)c21 as the compound, how does the Potency read?
**A.** inconclusive: 20 µM [inhibitor, partial curve, poor fit]
